Laboratory results reported in PubChem BioAssay AID493208 (National Center for Advancing Translational Sciences (NCATS), 2011).
In all, about 44,000 compounds went through this assay and about 340 (0.77%) were called active. Not shown: some 5% with an inconclusive outcome. The call rests on the fitted dose curve; in most records, active means well fitted inhibition curve with a large enough effect; inconclusive means small, poorly fitted or top-dose-only effect; inactive means flat fitted curve, though single readings scatter. Some of the results follow.

Test: Acumen qHTS Assay for Inhibitors of the mTORC1 Signaling Pathway in MEF (Tsc2-/-, p53-/-) Cells: Sytravon;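 further: plate controls were DMSO for no effect and rapamycin for full effect; nearly all actives have a fitted effect of over 50% in size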
Conditions: phospho-rpS6 immunofluorescence/PI, 24 h; series mostly up to 38.3 µM; activity change, negative = inhibition: at the top concentration
Procedure, shortened: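 Read-out: phospho-S6 Alexa-488 intensity over PI intensity per well, scored as % active cells using thresholds from rapamycin (7.5 nM) and DMSO controls. Tsc2-/-, p53-/- MEFs exposed to compound for 24 h; PI cell count recorded as viability.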

Row | Structure (SMILES) | activity change, negative = inhibition
1 | COc1ccc(Cl)cc1NC(=O)CCc1nc(-c2ccccc2F)no1 | inactive: -8.65%
2 | NS(=O)(=O)c1ccc(NC(=O)CCn2c(=O)oc3ccccc32)cc1 | inactive: -4.51%
3 | Cc1c(C(=O)N2CCCC2)oc2c1-c1nn(CC(=O)NCc3cccc(Br)c3)cc1CC2 | inactive: -5.3%
4 | Cc1ccc(-n2nnc3c(sc4nc(C)c(C)cc43)c2=O)cc1Cl | inactive: -11.4%
5 | Cc1ccc(C)c(NC(=O)C2CCCN(S(=O)(=O)c3c(C)noc3/C=C/N(C)C)C2)c1 (configuration not stated) | inactive: -25.6%
6 | COc1ccc(CSc2nc3ncccc3[nH]2)cc1 | inactive: 2.87%
7 | Cn1c(=O)oc2cc(S(=O)(=O)CCC(=O)NCc3ccccc3)ccc21 | inactive: 6.98%
8 | CCOc1ccc(N2CC(c3nc(-c4cc(OC)c(OC)c(OC)c4)no3)CC2=O)cc1 (configuration not stated) | inactive: 5.78%
9 | CCOc1ccc(N(C)S(=O)(=O)c2ccc3c(c2)C(C)(C)C(=O)N3C)cc1 | inactive: -1.64%
10 | COc1cccc(N2CC(NC(=O)c3ccc(S(=O)(=O)N4CCCC4)cc3)CC2=O)c1 (configuration not stated) | inactive: 3.96%
11 | O=C(NC1CCCC1)c1c[nH]c2ccc(S(=O)(=O)Nc3cccc(C(F)(F)F)c3)cc2c1=O | inactive: -19.7%
12 | CCN(c1ccccc1)S(=O)(=O)c1nnc(NC(=O)COc2ccc(OC)cc2)s1 | inactive: -1.08%
13 | CCOC(=O)c1c(C)oc2nc(C)nc(NCC3CCN(Cc4ccc(Cl)cc4)CC3)c12 | inactive: -16.8%
14 | CC(=O)OCC#CCSc1nnc(-c2cccc(Br)c2)o1 | inactive: 3.45%
15 | COc1ccc(-c2nc3n(n2)C(c2ccc(OC)cc2)C(C(=O)Nc2cccnc2)=C(C)N3)cc1 (configuration not stated) | inactive: 3.68%
16 | CCOC(=O)c1[nH]c(C)c(CCC(=O)N2CCN(c3ccccc3)CC2)c1C | inactive: -1.45%
17 | COCCNC(=O)C1CCN(S(=O)(=O)c2ccc3c(c2)CCCN3C(C)=O)CC1 | inactive: 0.0433%
18 | CCn1c(CN2CCC(C)CC2)nc2cc(NC(=O)c3ccccc3[N+](=O)[O-])ccc21 | inactive: -5.16%
19 | Cc1ccc(C)c(Cn2c(=O)c3c(nc4n3CCN4c3ccc(F)cc3)n(C)c2=O)c1 | inactive: 8.22%
20 | CC(=O)NCCNC(=O)CCCc1nnc2n(CCC(C)C)c(=O)c3sccc3n12 | inactive: 1.07%
21 | CCOc1ccc(-n2c(Cc3ccccc3)nnc2SCc2nc(-c3ccccc3C)no2)cc1 | inactive: -6.12%

Row | Structure (SMILES) | activity change, negative = inhibition
22 | CCc1ccc(OC(=O)CSc2nnc(-c3ccc4c(c3)OCO4)o2)cc1 | inactive: 0.0777%
23 | CCS(=O)(=O)N1CCc2cc(C(=O)N3CCN(c4cccc(C(F)(F)F)c4)CC3)ccc21 | inactive: -8.81%
24 | Cc1ccc(NC(=O)C(=O)NCC(c2cccnc2)N2CCOCC2)cc1C (configuration not stated) | inactive: -16.3%
25 | CCOCCCNC(=O)C(c1ccc(OC)cc1)N(Cc1cccs1)C(=O)c1ccc(NC(C)=O)cc1 (configuration not stated) | inactive: 9.73%
26 | Cc1ccc(C(=O)c2oc3ccccc3c2NC(=O)c2cc(=O)c3ccccc3o2)cc1 | inactive: -1.08%
27 | Fc1cccc(-c2nc(-c3ccncc3)no2)c1 | inactive: -3.57%
28 | COc1cccc(-c2cn3c(n2)sc2cc(C(=O)NCc4cccs4)ccc23)c1 | inactive: 6.89%
29 | COc1ccc(CNC(=O)Cn2ccc3cc(S(=O)(=O)N4CCCCCC4)ccc32)cc1OC | inactive: -5.74%
30 | COc1ccc2oc(=O)cc(CN3CCN(C(=O)c4ccccc4F)CC3)c2c1 | inactive: -2.96%
31 | CC(=O)Nc1ccc(NC(=O)CC2Sc3ccccc3NC2=O)cc1 (configuration not stated) | inactive: 1.03%
32 | Cc1ccc(Cl)cc1N1CCN(C(=O)c2cc(S(=O)(=O)N3CCC(C)CC3)cn2C)CC1 | inactive: -7.48%
33 | CCOc1ccc(CNS(=O)(=O)c2ccc3[nH]c4c(c3c2)CCCC4)cc1OC | inactive: -16%
34 | Cc1c(CNCc2ccc(Cl)cc2)c(C(=O)O)c(C)n1Cc1ccc(F)cc1 | inactive: 5.16%
35 | COc1ccc(NC(=O)CSc2nc3nc(C)cc(C)n3n2)cc1 | inactive: -0.638%
36 | CCCN(CCC)CCCNC(=O)C1CCC(CNS(=O)(=O)c2ccc(NC(C)=O)cc2)CC1 (configuration not stated) | inactive: -5.06%
37 | COc1cccc(CNC(=O)CCc2nnc3n(C)c(=O)c4sccc4n23)c1 | inactive: 2.11%
38 | COc1ccc(NC(=O)Cn2c(CCC(=O)O)ccc2-c2ccccc2)cc1Cl | inactive: 4.67%
39 | CCOC(=O)Cc1ccc(NC(=O)n2ncc3c(C)cccc32)cc1 | inactive: -2.25%
40 | CCOC(=O)c1c(C)oc2nc(C)nc(Nc3cccc(OC)c3)c12 | inactive: -5.49%
41 | CCOc1ccc(CC(=O)Nc2c(C(=O)c3ccc(F)cc3)oc3ccccc23)cc1OCC | inactive: -2.27%
42 | COc1ccc(C(CNC(=O)COc2ccc(C)c(C)c2)N2CCCCC2)cc1 (configuration not stated) | inactive: -14.3%

Row | Structure (SMILES) | activity change, negative = inhibition
43 | COC(=O)c1ccc(C2Nc3c(C)cc(C)cc3C3C=CCC32)cc1 (configuration not stated) | inactive: -17%
44 | Cc1ccccc1CSc1cn(CCNC(=O)c2cccs2)c2ccccc12 | inactive: -14.1%
45 | CCC(O)c1nc2ccccc2n1Cc1cccc(Cl)c1 (configuration not stated) | inactive: 2.23%
46 | O=C(NCc1ccc2c(c1)CCN2C(=O)c1ccc(F)cc1)c1ccc(Br)o1 | inactive: -1.53%
47 | COCCCN1C(=O)N(c2ccccc2)C(=O)C1CC(=O)Nc1ccc(F)cc1 (configuration not stated) | inactive: -5.87%
48 | Cc1cc(C)c(NC(=O)Cn2nc3c(cc2=O)CCCC3)c(C)c1 | inactive: 2.31%
49 | COc1ccccc1NC(=O)C1=C(C)Nc2c(C(=O)Nc3ccc(F)cc3)cnn2C1c1ccc(Cl)cc1 (configuration not stated) | inactive: 2.24%
50 | O=C(Nc1ccc(S(=O)(=O)Nc2ccccc2)cc1)N1CCCC1 | inactive: 1.12%
51 | COc1ccccc1NC(=O)N1CC(=O)Nc2sc3c(c2C1c1ccccc1)CCCC3 (configuration not stated) | inactive: 4.09%
52 | COc1ccc(-c2noc(-c3ccc(NCc4ccc(C)cc4)c([N+](=O)[O-])c3)n2)cc1OC | inactive: -8.41%
53 | Cn1c(=O)c2c(nc(SCC(=O)Nc3ccc(OC(F)(F)F)cc3)n2Cc2cccc(C(F)(F)F)c2)n(C)c1=O | inactive: -8.06%
54 | Cc1ccc(S(=O)(=O)Nc2cc3c(cc2C)n(C)c(=O)c(=O)n3C)cc1 | inactive: -1.83%
55 | Cc1ccc(-c2onc(C)c2C)cc1S(=O)(=O)N1CCCCC1 | inactive: -16.6%
56 | Cc1ccc(CSC2=Nc3ccccc3C3=NC(CCC(=O)N4CCN(c5ccccc5)CC4)C(=O)N23)cc1 (configuration not stated) | inactive: -0.406%
57 | CCOC(=O)c1c(N)n(-c2ccc(C)c(C)c2)c2nc3ccccc3nc12 | inactive: 0.166%
58 | O=C(Cn1c(=O)n(-c2ccc(F)cc2)c(=O)c2sc3ccccc3c21)N1CCCC1 | inactive: -2.41%
59 | CCOC(=O)c1sc2ccccc2c1S(=O)(=O)Nc1c(C)cccc1C | inactive: -7.07%
60 | Cn1nc(C(=O)NCc2ccccc2)c2c1-c1ccccc1SC2 | inactive: 0.217%
61 | COc1ccc(-n2nc(C(=O)N3CCC(C)CC3)c3c4ccccc4n(C)c3c2=O)cc1Cl | inactive: 2.22%
62 | Cc1ccccc1NC(=O)CSc1nc(-c2ccc(F)cc2)c2cccc(C)c2n1 | inactive: 0.717%
